Assay results from PMC12093142.
No constants are given. Whether binding was seen depends on the method and setting. Binding seen in cells or lysates may run through a third protein. Some results given as binding are weak or reduced against the parent protein; the word gives no strength. For part of these data: Sequences can lack the tags named with a protein.

Amino acid sequences for entries named in this document (tags omitted).
UniProt Q9HAU5: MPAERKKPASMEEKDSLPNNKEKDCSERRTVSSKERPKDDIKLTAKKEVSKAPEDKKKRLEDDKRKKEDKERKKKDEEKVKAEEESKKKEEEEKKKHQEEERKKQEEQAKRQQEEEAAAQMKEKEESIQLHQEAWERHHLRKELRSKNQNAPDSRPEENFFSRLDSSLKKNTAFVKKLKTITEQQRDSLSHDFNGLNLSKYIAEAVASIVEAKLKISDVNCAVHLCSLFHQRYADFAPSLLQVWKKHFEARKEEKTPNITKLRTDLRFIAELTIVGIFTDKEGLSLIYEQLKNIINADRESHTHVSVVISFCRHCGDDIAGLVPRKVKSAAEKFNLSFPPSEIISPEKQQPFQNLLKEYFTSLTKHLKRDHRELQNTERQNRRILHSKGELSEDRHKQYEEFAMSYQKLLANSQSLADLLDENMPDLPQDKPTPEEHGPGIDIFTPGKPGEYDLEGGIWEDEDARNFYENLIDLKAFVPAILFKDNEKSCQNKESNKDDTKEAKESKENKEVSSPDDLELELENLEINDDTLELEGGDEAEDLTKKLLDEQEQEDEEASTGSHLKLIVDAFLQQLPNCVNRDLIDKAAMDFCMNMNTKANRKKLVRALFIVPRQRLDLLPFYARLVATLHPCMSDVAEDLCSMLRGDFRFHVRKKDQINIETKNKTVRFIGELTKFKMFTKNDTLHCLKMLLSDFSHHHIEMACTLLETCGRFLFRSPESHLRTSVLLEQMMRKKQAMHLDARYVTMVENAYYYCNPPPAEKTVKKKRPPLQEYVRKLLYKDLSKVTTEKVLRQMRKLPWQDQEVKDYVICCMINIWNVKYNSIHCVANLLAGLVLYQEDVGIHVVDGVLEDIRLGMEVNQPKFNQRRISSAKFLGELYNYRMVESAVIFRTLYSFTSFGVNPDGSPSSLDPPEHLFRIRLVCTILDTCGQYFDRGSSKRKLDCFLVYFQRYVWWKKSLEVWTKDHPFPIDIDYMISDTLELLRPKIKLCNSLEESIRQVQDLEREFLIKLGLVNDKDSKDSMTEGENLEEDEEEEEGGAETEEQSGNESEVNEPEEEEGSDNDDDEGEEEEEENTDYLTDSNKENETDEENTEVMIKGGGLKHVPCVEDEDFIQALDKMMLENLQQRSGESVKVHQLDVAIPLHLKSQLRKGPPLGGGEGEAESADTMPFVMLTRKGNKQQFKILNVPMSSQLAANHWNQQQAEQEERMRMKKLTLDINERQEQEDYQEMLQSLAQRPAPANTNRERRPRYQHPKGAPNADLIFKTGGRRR
UniProt P63241: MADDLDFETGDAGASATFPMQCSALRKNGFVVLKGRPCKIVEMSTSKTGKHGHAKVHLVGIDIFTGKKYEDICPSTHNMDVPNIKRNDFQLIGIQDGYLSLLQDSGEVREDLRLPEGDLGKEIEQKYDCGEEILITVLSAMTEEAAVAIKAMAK
UniProt O14980: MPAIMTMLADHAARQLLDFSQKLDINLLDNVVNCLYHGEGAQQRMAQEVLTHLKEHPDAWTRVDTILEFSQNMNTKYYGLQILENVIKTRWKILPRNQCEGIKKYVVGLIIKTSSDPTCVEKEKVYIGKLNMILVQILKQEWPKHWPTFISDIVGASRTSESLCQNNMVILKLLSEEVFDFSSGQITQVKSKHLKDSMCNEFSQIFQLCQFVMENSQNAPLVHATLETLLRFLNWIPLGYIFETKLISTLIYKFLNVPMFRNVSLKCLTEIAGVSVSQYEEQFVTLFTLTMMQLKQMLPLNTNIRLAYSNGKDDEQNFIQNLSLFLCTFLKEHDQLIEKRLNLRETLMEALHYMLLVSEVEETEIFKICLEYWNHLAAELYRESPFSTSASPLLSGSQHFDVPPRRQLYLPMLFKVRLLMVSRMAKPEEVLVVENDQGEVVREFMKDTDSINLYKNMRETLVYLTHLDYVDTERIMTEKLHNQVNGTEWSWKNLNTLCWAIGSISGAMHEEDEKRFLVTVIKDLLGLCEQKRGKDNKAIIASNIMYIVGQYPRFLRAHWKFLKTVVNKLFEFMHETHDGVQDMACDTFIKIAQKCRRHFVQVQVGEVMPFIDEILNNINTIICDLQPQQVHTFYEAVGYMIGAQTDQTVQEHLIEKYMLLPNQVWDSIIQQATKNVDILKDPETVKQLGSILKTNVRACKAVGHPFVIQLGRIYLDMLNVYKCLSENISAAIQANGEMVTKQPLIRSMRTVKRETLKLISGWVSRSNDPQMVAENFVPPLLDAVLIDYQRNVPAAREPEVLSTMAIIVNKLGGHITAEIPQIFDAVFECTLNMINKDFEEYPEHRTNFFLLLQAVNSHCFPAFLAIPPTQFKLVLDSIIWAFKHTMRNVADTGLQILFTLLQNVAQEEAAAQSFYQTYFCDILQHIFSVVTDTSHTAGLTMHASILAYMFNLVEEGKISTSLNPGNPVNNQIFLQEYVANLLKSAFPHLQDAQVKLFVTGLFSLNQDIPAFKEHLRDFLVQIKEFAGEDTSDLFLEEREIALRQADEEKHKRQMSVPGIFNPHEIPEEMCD

T1: RNA helicase UPF1 (endogenous) (human (endogenous in 293T, Jurkat, C8166, C91PL, HUT102)) (UniProt Q92900)
T1 sequence: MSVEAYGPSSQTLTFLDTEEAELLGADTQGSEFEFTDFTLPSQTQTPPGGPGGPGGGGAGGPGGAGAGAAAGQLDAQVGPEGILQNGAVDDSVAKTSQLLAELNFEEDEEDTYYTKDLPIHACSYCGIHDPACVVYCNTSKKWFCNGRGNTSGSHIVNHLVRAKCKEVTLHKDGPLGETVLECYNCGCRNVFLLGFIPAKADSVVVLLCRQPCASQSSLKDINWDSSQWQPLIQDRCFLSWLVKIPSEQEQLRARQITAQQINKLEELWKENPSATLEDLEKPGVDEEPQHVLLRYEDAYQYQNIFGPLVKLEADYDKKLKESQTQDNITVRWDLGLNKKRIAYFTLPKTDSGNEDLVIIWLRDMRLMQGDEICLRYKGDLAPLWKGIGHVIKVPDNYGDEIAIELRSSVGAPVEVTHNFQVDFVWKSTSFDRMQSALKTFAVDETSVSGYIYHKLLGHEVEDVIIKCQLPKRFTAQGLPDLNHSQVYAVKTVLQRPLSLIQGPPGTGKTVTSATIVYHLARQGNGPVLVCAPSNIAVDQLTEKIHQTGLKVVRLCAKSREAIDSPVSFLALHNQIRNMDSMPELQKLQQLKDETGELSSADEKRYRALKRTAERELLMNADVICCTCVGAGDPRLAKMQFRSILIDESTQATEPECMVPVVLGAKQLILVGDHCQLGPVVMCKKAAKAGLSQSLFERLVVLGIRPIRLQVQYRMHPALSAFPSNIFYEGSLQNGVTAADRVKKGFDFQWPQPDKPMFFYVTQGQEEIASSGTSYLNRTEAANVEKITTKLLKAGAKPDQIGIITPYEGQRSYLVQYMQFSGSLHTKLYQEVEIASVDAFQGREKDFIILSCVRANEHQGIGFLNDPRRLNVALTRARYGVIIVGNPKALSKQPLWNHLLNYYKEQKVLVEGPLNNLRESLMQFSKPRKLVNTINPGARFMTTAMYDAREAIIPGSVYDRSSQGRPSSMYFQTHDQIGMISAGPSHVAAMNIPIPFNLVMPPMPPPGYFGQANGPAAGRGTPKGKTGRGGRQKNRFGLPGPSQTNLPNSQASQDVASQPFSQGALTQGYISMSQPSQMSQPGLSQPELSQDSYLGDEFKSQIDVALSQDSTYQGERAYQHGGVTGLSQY

T2: HTLV-1 Rex (Rex WT, without tag) (HTLV-1) (UniProt P0C205)
T2 sequence: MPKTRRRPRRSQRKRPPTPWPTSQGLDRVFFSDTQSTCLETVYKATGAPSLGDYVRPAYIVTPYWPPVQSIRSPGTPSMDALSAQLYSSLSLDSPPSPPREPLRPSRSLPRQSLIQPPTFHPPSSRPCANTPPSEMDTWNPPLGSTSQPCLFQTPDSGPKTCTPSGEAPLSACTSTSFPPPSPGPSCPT

T3: HA-UPF1 (UniProt Q92900)
T3 sequence: T1 sequence

T4: FTSJ1 (ribosomal RNA methyltransferase 1) (human (endogenous in 293T)) (UniProt Q9UET6)
T4 sequence: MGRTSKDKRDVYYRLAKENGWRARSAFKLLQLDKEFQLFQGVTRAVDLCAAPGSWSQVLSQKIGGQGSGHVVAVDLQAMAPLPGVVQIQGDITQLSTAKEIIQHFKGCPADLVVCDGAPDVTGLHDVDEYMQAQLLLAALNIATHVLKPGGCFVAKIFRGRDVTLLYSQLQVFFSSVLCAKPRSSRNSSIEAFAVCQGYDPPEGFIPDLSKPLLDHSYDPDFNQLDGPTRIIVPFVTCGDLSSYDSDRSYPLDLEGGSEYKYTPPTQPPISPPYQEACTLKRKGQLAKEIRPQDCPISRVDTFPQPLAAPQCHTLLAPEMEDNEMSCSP

B1: HA-Rex (protein, UniProt P0C205 1-189)
chain: T2 sequence
B2: HTLV-1 Rex (Rex WT, without tag) (protein, UniProt P0C205 1-189)
chain: T2 sequence
B3: HTLV-1 Rex expressed in chronically infected T cell lines (protein, UniProt P0C205 1-189)
chain: T2 sequence

How the values were obtained:
[1] = molecular target: UPF2 (endogenous) (human (endogenous in C91PL)) (UniProt Q9HAU5); assay: co-IP; C91PL cell extracts; IP with UPF2 antibody or a control antibody; western blot
[2] = molecular target: T1, RNA helicase UPF1 (endogenous) (human (endogenous in 293T, Jurkat, C8166, C91PL, HUT102)); assay: co-IP; extracts of lymphocytes (Jurkat, C8166, C91PL, HUT102); IP with rabbit polyclonal anti-UPF1; western blot
[3] = molecular target: T2, HTLV-1 Rex (Rex WT, without tag) (HTLV-1); assay: co-IP; 293T extracts, cells expressing combinations of Rex and an RxRE containing RNA; IP with an antibody targeting Rex; western blot
HA-UPF1 = molecular target: T3, HA-UPF1; assay: proximity ligation; HeLa cells transiently transfected with HA-UPF1 with or without Rex; anti-HA combined with anti-CRM1 (endogenous CRM1)
[4] = molecular target: T1, RNA helicase UPF1 (endogenous) (human (endogenous in 293T, Jurkat, C8166, C91PL, HUT102)); assay: co-IP; 293T extracts, cells expressing Rex (WT, NES or NLS mutant) with or without an RxRE containing RNA; IP with rabbit polyclonal anti-UPF1; with or without RNAse A (0.1 mg/ml, 30 min); western blot
[5] = molecular target: T4, FTSJ1 (ribosomal RNA methyltransferase 1) (human (endogenous in 293T)); assay: proximity ligation; 293T cells transiently transfected with HA-Rex; anti-HA combined with anti-UPF1, anti-FTSJ1 or anti-eIF5A; 40 nm resolution
[6] = molecular target: T1, RNA helicase UPF1 (endogenous) (human (endogenous in 293T, Jurkat, C8166, C91PL, HUT102)); assay: as above
[7] = molecular target: eIF5A (human (endogenous in 293T)) (UniProt P63241); assay: as above
[8] = molecular target: exportin CRM1 (XPO1), endogenous (human (endogenous in 293T, HeLa, Jurkat, C8166, C91PL, HUT102)) (UniProt O14980); assay: co-IP; 293T extracts, cells expressing combinations of Rex and an RxRE containing RNA; IP with rabbit polyclonal anti-CRM1 or pre-immune serum; lysis buffer 50 mM Tris-Cl pH 8, 1% Triton, 200 mM KCl, 0.1 mM GTP; western blot

Molecule | binding [1] | binding [2] | binding [4] | also measured
exportin CRM1 (XPO1), endogenous (from UniProt O14980 1-1071) | binds | binds | binds | binding [3]: binds; binding (HA-UPF1): binds
B1 |  |  |  | binding [5]: no binding; binding [6]: binds; binding [7]: binds
B2 |  |  | binds | binding [8]: binds
B3 | no binding | binds |  | 
